# Measurements from PubChem BioAssay AID1476 (National Center for Advancing Translational Sciences (NCATS), 2009).
# “And” between values parts separate entries of the source, which are not always exact repeats. Identical values can stand only once. The whole screen tested about 200,000 compounds, of which about 4,500 (2.2%) were called active. This list was built around the results that the source calls inconclusive (neither active nor inactive); the mix of calls is not that of the screen. Calls follow the shape of the dose curve; as a rule, active = well fitted inhibition curve with a large enough effect; inconclusive = small, poorly fitted or top-dose-only effect, or effect the other way; inactive = flat fitted curve, though single readings scatter. Potencies of inconclusive entries are doubtful fits and often do not repeat.
# Molecular target: Cruzipain (Trypanosoma cruzi) (UniProt P25779)
# Chain of UniProt P25779 (P25779 whole entry, looked up): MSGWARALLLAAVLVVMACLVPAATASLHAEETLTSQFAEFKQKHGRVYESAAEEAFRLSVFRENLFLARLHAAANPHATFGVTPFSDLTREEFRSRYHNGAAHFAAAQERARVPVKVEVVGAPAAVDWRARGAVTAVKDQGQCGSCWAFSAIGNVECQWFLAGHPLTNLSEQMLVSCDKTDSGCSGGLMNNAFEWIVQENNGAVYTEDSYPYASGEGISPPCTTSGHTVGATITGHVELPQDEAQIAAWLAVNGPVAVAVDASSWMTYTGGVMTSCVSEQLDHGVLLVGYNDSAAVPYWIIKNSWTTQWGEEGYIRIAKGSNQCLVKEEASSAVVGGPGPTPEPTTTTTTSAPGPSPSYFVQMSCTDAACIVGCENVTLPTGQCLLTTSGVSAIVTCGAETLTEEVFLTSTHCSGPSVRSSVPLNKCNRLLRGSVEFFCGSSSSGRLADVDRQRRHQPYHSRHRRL
# Assay: qHTS Assay for Promiscuous and Specific Inhibitors of Cruzain (without detergent); also: nearly all actives have a fitted effect of over 40% in size;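 as to max response, negative = inhibition: plate controls were enzyme without inhibitor for no effect and buffer without enzyme for full effect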
# Settings: purified cruzain, Z-FR-AMC fluorescence, no detergent
# Summary of the method: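 Purified cruzain at 1.5 nM, pre-incubated 15 min with compound at room temperature in 100 mM sodium acetate pH 5.5, 5 mM DTT, 0.00005% Triton X-100. Reaction started with 2 uM Z-FR-AMC; AMC fluorescence increase over 60 s gives rate.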
# Potency is read from the fitted curve at half-maximal effect; tags tell the direction and shape of the fitted curve.
Structure (SMILES),Potency,"max response, negative = inhibition"
O=C(CNC(=O)c1ccccc1F)OC(C(=O)Nc1cc(C(F)(F)F)ccc1Cl)c1ccccc1 (stereo unspecified),active: 7.94 µM,
CCCCC[C@H](O)/C=C/[C@H]1[C@H](O)CC(=O)[C@@H]1C/C=C\CCCC(=O)O,"inconclusive: 39.8 µM [activator, single point]",
Cc1c(C(=O)Nc2ccc3c(c2)OCCO3)sc2nc(-c3ccccc3)cn12,"inconclusive: 25.1 µM [inhibitor, partial curve]",
Cc1cc2oc(=O)cc(-c3ccccc3)c2c(C)c1-c1ccc(F)c(Cl)c1,active: 5.62 µM,
COc1ccc(-c2nnnn2C)cc1S(=O)(=O)NCc1ccccc1,,inactive: -3.29%
CC(C)(C)OC(=O)N1CCOCCOCCN(C(=O)OC(C)(C)C)CCOCCOCC1,"inconclusive: 15.8 µM [activator, partial curve]",
Cc1cccc(N2CCN(C(=O)c3cc(S(=O)(=O)N4CCC(C)CC4)cn3C)CC2)c1C,"inconclusive: 25.1 µM [activator, single point]",
COc1ccc(C2c3c(oc4ccccc4c3=O)C(=O)N2c2ccc(C)cn2)cc1OC (stereo unspecified),"inconclusive: 39.8 µM [activator, single point]",
COc1cccc(Nc2ncc3nc(-c4cccs4)c(=O)n(-c4ccccc4)c3n2)c1,active: 6.31 µM,
CC1Cc2nc(SCC(=O)Nc3nc4ccccc4s3)n(C)c(=O)c2S1 (stereo unspecified),"inconclusive: 10 µM [inhibitor, partial curve]",
COc1ccccc1/C=N/n1c(N)c(S(=O)(=O)c2cccs2)c2nc3ccccc3nc21,active: 7.94 µM,
Cc1cccc(CNc2ncnc3ccc(-c4ccc5c(c4)OCO5)cc23)c1,"inconclusive: 39.8 µM [inhibitor, single point]",
COC(=O)c1c(NC(=O)CN2CCOCC2)sc2c1CCC(C)C2 (stereo unspecified),,inconclusive: 268% [activator]
COc1ccccc1CN1CC(C(=O)N2CCN(c3ccc(F)cc3)CC2)CC1=O (stereo unspecified),"inconclusive: 25.1 µM [activator, single point]",
COc1ccc(-n2c(SCC(=O)N3CCN(c4ccccc4)CC3)nc3c(c2=O)SCC3)cc1,"inconclusive: 39.8 µM [inhibitor, single point]",
O=C(N/N=C/c1cn(-c2ccccc2)nc1-c1cc2ccccc2o1)c1ccccc1Br,active: 7.94 µM,
CCOC(=O)C(=CNc1ccc(C(O)(C(=O)OCC)C(F)(F)F)cc1C)C(=O)OCC (stereo unspecified),"inconclusive: 31.6 µM [activator, partial curve]",
Clc1ccccc1N1CCN(c2ncnc3c2c(-c2ccccc2)cn3-c2ccccc2)CC1,"inconclusive: 3.16 µM [inhibitor, full curve]",
CCN(CC)c1nn2c(=O)c(C(=O)NCc3ccc(OC)cc3OC)cnc2s1,"inconclusive: 39.8 µM [activator, single point]",
O=S(=O)(Nc1nc2ccccc2nc1N1CCN(c2ccccc2F)CC1)c1ccc(Cl)cc1,"inconclusive: 39.8 µM [inhibitor, single point]",
Cc1ccc(S(=O)(=O)N(CC(=O)Nc2ccccc2C(=O)O)c2cccc(Cl)c2C)cc1,"inconclusive: 25.1 µM [activator, single point]",

Structure (SMILES),Potency,"max response, negative = inhibition"
N[C@@H](Cn1ccc(=O)n(Cc2ccccc2C(=O)O)c1=O)C(=O)O,,inactive: 8.82%
CC(=O)OC1CC(OC(C)=O)[C@]2(C)C(CC(OC(C)=O)[C@]3(C)C2CC[C@@]2(C)C(c4ccoc4)OC(=O)C4O[C@]432)C1(C)C (stereo partly specified),"inconclusive: 31.6 µM [activator, single point]",
COc1ccc(C(=O)Oc2cccc(/C=N/NC(N)=S)c2)cc1,active: 15.8 µM,
COc1cccc(NC(=O)Nc2cc(NC(=O)Nc3cccc(OC)c3)c(C)nc2C)c1,"inconclusive: 31.6 µM [activator, single point]",
O=C(Cn1ncc2c3ccccc3n(Cc3ccc(Cl)cc3)c2c1=O)N1CCCCCC1,,inactive: 11.1%
COc1cccc(-c2cn3c(n2)sc2cc(C(=O)NC4CCCCCC4)ccc23)c1,,inactive: 4.21%
N#Cc1cnn(-c2nc3sc4c(c3c(=O)[nH]2)CCCC4)c1N,"inconclusive: 39.8 µM [inhibitor, single point]",
CCCCCCN(C(=O)CCCCCN1C(=O)NC(c2ccc(-c3ccccc3)cc2)C(C(=O)OCc2ccccc2)=C1C)C(C(=O)NCCCC)c1ccc(-c2ccccc2)cc1 (stereo unspecified),"inconclusive: 2.51 µM [inhibitor, full curve, poor fit]",
CC1=CC(C)(C)N2C(=O)C3(C(C#N)=C(N)Oc4cc(O)ccc43)c3c(C)c(C)cc1c32 (stereo unspecified),"inconclusive: 39.8 µM [activator, single point]",
Cc1ccc(-c2nn(-c3ccccc3)cc2CN(Cc2ccccc2)C(=O)CCC(=O)O)o1,"inconclusive: 5.01 µM [activator, single point]",
COCCCNC(=O)Cn1c(=O)n(Cc2ccc(C(=O)NCc3ccc(C)cc3)cc2)c(=O)c2ccccc21,"inconclusive: 12.6 µM [activator, partial curve]",
COc1ccc(OCc2nc3c4cc(OC)c(OC)cc4nc(=S)n3[nH]2)cc1,"inconclusive: 39.8 µM [activator, single point]",
Cc1[nH]c2c(ccc3ccccc32)c1C1C(CCN)C1(C)C (stereo unspecified),active: 10 µM,
COC1C(O)C(C)O[C@@H](OC2CC[C@@]3(C)C4CC[C@]5(C)C(C6=CC(=O)OC6)CC[C@@]5(O)C4CC[C@@H]3C2)C1O (stereo partly specified),"inconclusive: 31.6 µM [activator, single point]",
COC(=O)c1c(NC(=O)c2cc(=O)c3ccc(C)c(C)c3o2)sc2c1CCCC2,,inactive: -8.99%
CCC(Sc1nc2ccccc2c2nc(CCc3c(C)n[nH]c3C)nn12)C(=O)Nc1ccc(F)cc1 (stereo unspecified),"inconclusive: 7.94 µM [activator, full curve, poor fit]",
COc1ccccc1CNS(=O)(=O)c1ccc2[nH]c3c(c2c1)CCCCC3,"inconclusive: 39.8 µM [inhibitor, single point]",
Cc1ccc(S(=O)(=O)Nc2ccc3c(c2)nc2n3CCN(Cc3ccccc3)C2)cc1,"inconclusive: 31.6 µM [inhibitor, single point]",
O=C(c1ccc(S(=O)(=O)N2CCCCC2)cc1)c1nnc(-c2ccc(Cl)cc2)o1,,inactive: -13.4%
Cc1cc2oc(C(=O)Nc3sc4c(c3C(=O)NCc3ccco3)CCC4)cc(=O)c2cc1C,,inactive: -9.7%
O=C(Nc1ccc([N+](=O)[O-])cc1)c1nc[nH]c1C(=O)NC1CCCCC1,"inconclusive: 6.31 µM [activator, single point]",

Structure (SMILES),Potency,"max response, negative = inhibition"
CCn1c(COc2ccccc2)nnc1SCC(=O)Nc1cc(OC)ccc1OC,"inconclusive: 39.8 µM [activator, single point]",
CCOc1cccc2sc(NC(=O)c3ccc(S(=O)(=O)N4CCCc5ccccc54)cc3)nc12,active: 2 µM,
O=C1c2ccccc2C(=O)N1OCc1ccccc1,"inconclusive: 1.58 µM [inhibitor, single point]",
Cc1cc(/C=C(\C#N)C(=O)NCC2CCCO2)c(C)n1-c1ccc(Cl)cc1 (stereo unspecified),"inconclusive: 39.8 µM [activator, single point]",
Cc1ccc(NC(=O)CSc2ncnc3ccccc23)cc1S(=O)(=O)N1CCCCC1,"inconclusive: 31.6 µM [inhibitor, single point]",
COc1ccc(C(=O)Nc2sc(C)c(-c3ccccc3)c2C#N)cc1OC,"inconclusive: 31.6 µM [activator, single point]",
CNC(=S)N/N=C/c1cccc(OCc2ccccc2F)c1,"inconclusive: 15.8 µM [inhibitor, partial curve, poor fit]",
CCOC(=O)c1c(C)[nH]c(C)c1S(=O)(=O)N1CCC(C(=O)N2CCN(c3cccc(C)c3)C(C)C2)CC1 (stereo unspecified),"inconclusive: 25.1 µM [activator, partial curve]",
O=C(Nc1ccc(C(F)(F)F)cc1)c1cc(S(=O)(=O)NC2CCCCCC2)ccc1F,,inactive: -1.7%
O=C(Nc1cnn(Cc2ccc(Cl)cc2Cl)c1)c1cc(-c2cccs2)on1,"inconclusive: 39.8 µM [inhibitor, single point]",
Cc1ccc(NC(=O)c2nc(S(C)(=O)=O)ncc2N(Cc2ccco2)Cc2ccccc2F)c(C)c1,,inactive: 1.41%
c1ccc(C(c2nnnn2Cc2ccco2)N2CCN(c3nc4ccccc4s3)CC2)cc1 (stereo unspecified),"inconclusive: 25.1 µM [inhibitor, partial curve, poor fit]",
CC(=O)c1ccc(N2CCN(C(=O)C3CCN(S(=O)(=O)c4ccc(Br)s4)CC3)CC2)cc1,,inactive: -8.9%
Cc1c(N/N=C(\C#N)C(=O)c2ccccc2)c(=O)n(-c2ccccc2)n1C,,inactive: -0.3%
COc1ccc(CCNc2oc(COc3ccc(Br)cc3)nc2C#N)cc1OC,"inconclusive: 39.8 µM [activator, single point]",
Cc1cccc(C(=O)NC(=S)Nc2ccc(S(=O)(=O)N(C)c3ccccc3)cc2)c1,"inconclusive: 31.6 µM [inhibitor, single point]",
COCCCNC(=O)c1cn(CC(C)C)c(=O)c2c1c1ccccc1n2C,"inconclusive: 31.6 µM [activator, single point] and inconclusive: 15.8 µM [activator, partial curve]",
CCOC(=O)n1c(=O)oc2ccccc21,,inactive: 2.45%
CCOc1ccc(-c2nnc(SCC(=O)Nc3ccccc3C(F)(F)F)o2)cc1,"inconclusive: 39.8 µM [inhibitor, single point]",
